Results: PubChem BioAssay AID1963319 (National Center for Advancing Translational Sciences (NCATS), 2024)
Screen size: about 1,300 compounds; about 120 (9.2%) were called active. This list was built around the results that the source calls inconclusive (neither active nor inactive); the mix of calls is not that of the screen. The call rests on the fitted dose curve; in most records, active means well fitted activation curve with a large enough effect; inconclusive means small, poorly fitted or top-dose-only effect; inactive means flat fitted curve, though single readings scatter. Potencies of inconclusive entries are doubtful fits and often do not repeat.

Target: Luciferin 4-monooxygenase (Photinus pyralis) (UniProt P08659)
Test: Firefly luciferase (FLuc-C-HiBiT) SDR gain of signal screen - plus ATP;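 further: signal reports ligand binding via conformational change of the enzyme rather than luciferase catalysis; nearly all actives have a fitted effect of over 55% in size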
Settings: purified FLuc-C-HiBiT + ATP, HiBiT complementation luminescence; series mostly up to 32.7 µM
Method in brief: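 Steps: 10 nM FLuc-C-HiBiT plus 10 uM ATP; pin-transfer compounds and PTC124 control; incubate >30 min RT, light-protected; add Nano-Glo HiBiT reagent; 5-10 min RT; CCD luminescence, 1 sec exposure.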
Potency means the concentration at half of the fitted maximal effect; tags describe the fitted curve by direction and shape.

Sequence of UniProt P08659 (P08659 whole entry, looked up): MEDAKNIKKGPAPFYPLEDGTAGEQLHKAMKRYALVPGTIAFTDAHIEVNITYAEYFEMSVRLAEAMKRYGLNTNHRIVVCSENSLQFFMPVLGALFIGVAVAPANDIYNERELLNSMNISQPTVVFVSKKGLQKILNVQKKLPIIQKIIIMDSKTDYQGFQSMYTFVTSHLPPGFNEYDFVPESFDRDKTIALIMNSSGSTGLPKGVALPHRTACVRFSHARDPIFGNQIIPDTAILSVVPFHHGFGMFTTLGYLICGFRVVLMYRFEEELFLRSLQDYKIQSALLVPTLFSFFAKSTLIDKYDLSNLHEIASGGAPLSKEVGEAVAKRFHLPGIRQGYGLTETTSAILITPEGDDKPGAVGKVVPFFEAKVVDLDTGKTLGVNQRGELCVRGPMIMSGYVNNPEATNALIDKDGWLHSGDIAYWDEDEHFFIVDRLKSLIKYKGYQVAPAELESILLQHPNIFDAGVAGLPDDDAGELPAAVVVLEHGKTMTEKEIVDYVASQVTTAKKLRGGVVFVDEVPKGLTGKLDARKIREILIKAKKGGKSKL

| SMILES | Potency |
| --- | --- |
| Cn1c(=O)c2ccnn2c2ccc(C(=O)Nc3ccc4c(c3)OCCO4)cc21 | inactive |
| CCN1CCN(C(=O)Cn2c(C)ccc(NC(=O)Nc3ccc(C)cc3)c2=O)CC1 | inconclusive: 12.4 µM [activator, partial curve] |
| O=C(NCc1cccs1)C1CCN(C(=O)c2ncn3c2COC(c2ccccc2)C3)CC1 (stereo unspecified) | active: 2.21 µM |
| C[S+](=O)([O-])CCn1ncc2cc(OCc3cccc(-c4cccc(O)c4)c3)ccc21 | inactive |
| O=C(O)c1ccc(-c2noc(-c3cccc(F)c3)n2)cc1 | inconclusive: 6.24 µM [activator, partial curve] |
| CN1CCCCCCN(C(=O)Nc2ccc3c(c2)OCCO3)CCC1=O | inconclusive: 12.4 µM [activator, partial curve, poor fit] |
| OC1(CN2CCCCC2)CCN(c2nc3ccccc3s2)C1 (stereo unspecified) | inactive |
| O=C(Nc1cccc(-c2ccc(N3CCCC3)nn2)c1)c1c(F)cccc1F | inconclusive: 12.4 µM [activator, partial curve, poor fit] |
| Brc1ccccc1-c1nc(-c2ccccc2)no1 | inconclusive: 1.76 µM [activator, full curve, poor fit] |
| Cc1ccc(C2Cn3nnc(C(=O)N4CCC(C(=O)Nc5ccc(F)cc5)CC4)c3CO2)cc1 (stereo unspecified) | inconclusive: 6.24 µM [activator, partial curve] |
| CSc1ccc(/C=C/c2nc3ccccc3n2S(=O)(=O)c2cccc(Cl)c2)cc1 | inconclusive: 1.97 µM [activator, full curve] |
| COc1ccc(-c2cc3c(=O)n(CCNC(=O)c4cccc(N(C)C)c4)ccn3n2)cc1 | inconclusive: 9.89 µM [activator, partial curve] |
| Cc1ccc(-n2nc(C)c([C@@H]3C=C[C@@H](NC(=O)COCC(=O)O)C3)c2C)cc1Cl | inactive |
| Cc1ccc(-c2cc3c(=O)n(CCNC(=O)c4nn(C)c5ccccc45)ccn3n2)c(C)c1 | inconclusive: 7 µM [activator, partial curve, poor fit] |
| Cc1ccccc1CCNC(=O)c1ccc2c(c1)nc1n2CCOC1 | inconclusive: 9.89 µM [activator, partial curve] |
| Cc1ccc(NC(=O)N2CCCC(c3noc(COc4ccccc4)n3)C2)cc1C (stereo unspecified) | inactive |
| O=C(NCc1ccc(F)c(Cl)c1)C1CCN(C(=O)c2ncn3c2COC(c2ccccc2)C3)CC1 (stereo unspecified) | inconclusive: 7 µM [activator, partial curve] |
| Cc1ccc(NC(=O)Nc2ccc(C)n(CC(=O)NCCN3CCCC3)c2=O)cc1 | inconclusive: 12.4 µM [activator, partial curve, poor fit] |
| Cn1cc(-c2cccc(COc3ccc4c(cnn4CC[S+](C)(=O)[O-])c3)c2)cn1 | inconclusive: 10.1 µM [activator, partial curve, poor fit] |
| CCn1c(=O)c(C(=O)Nc2ccc(C(C)=O)cc2)nc2ccccc21 | inconclusive: 12.4 µM [activator, partial curve, poor fit] |
| CSc1cccc(NC(=O)Nc2cccc(-c3ccc(N4CCOCC4)nn3)c2)c1 | inconclusive: 12.4 µM [activator, partial curve, poor fit] |
| CCOC(=O)c1cccc(Nc2nc(-c3ccccc3)no2)c1 | inconclusive: 11.1 µM [activator, partial curve, poor fit] |

| SMILES | Potency |
| --- | --- |
| Fc1ccc(-c2cn3cc(Cc4ccccc4Cl)sc3n2)cc1 | inconclusive: 4.95 µM [activator, partial curve] |
| Cc1cccc(NC(=O)c2cc(-c3ccc4c(c3)OCCO4)on2)c1 | inconclusive: 4.42 µM [activator, partial curve] |
| COc1cccc(F)c1-c1ccc(COc2ccc3c(cnn3CCC(=O)O)c2)cc1 | inactive |
| COc1ccc(-c2ncc3c(n2)OCCN(C)C3=O)cc1F | inconclusive: 22.7 µM [activator, partial curve, poor fit] |
| Cc1ccc2c(c1)sc1nc(-c3cc4ccccc4oc3=O)cn12 | inconclusive: 0.556 µM [activator, full curve] |
| COc1cccc(C(=O)Nc2ccc(-c3nc4ccccc4s3)cc2Cl)c1 | inactive |
| CCC(=O)NCCC1CCN(C(=O)Nc2ccc(C)c(F)c2)CC1 | inconclusive: 14 µM [activator, partial curve] |
| O=C(NCc1ccco1)c1cccc2c1CCN2C(=O)Nc1ccc(F)cc1 | active: 1.76 µM |
| CC1CCCN(c2ncnc3c2cnn3-c2ccccc2)C1 (stereo unspecified) | inconclusive: 2.48 µM [activator, full curve] |
| CCC(=O)Nc1cc2nn(-c3ccc(C)cc3)nc2cc1C | inconclusive: 3.94 µM [activator, partial curve] |
| Cc1cc(-c2nc3cc(F)ccc3s2)ccc1NC(=O)[C@@H](N)CCCCN | inconclusive: 2.21 µM [activator, full curve, poor fit] |
| O=C(Nc1ccccc1)N1CC(Oc2ccc(-c3nc(-c4ccccc4)no3)cc2)C1 | inactive |
| COc1ccc(NC(=O)N2CCc3c(C(=O)N(C)C)cccc32)cc1 | active: 0.157 µM |
| CCOC(=O)c1cccc(NC(=O)CCc2c(C)nc3cc(-c4ccc(Cl)cc4)nn3c2C)c1 | inconclusive: 2.21 µM [activator, full curve] |
| CN1c2cc(C(=O)Nc3ccc4c(c3)OCCO4)ccc2C(=O)N2CCCCC21 (stereo unspecified) | inconclusive: 9.89 µM [activator, partial curve] |
| COc1ccc(-c2noc(N3CCc4ccccc43)n2)cc1 | inconclusive: 3.94 µM [activator, partial curve, poor fit] |
| c1cncc(Nc2cc3c(cn2)CN(Cc2cnc[nH]2)CCN3)c1 | inactive |
| CN1CCN(c2ccc(-c3cccc(N)c3)nn2)CC1 | inconclusive: 11.1 µM [activator, partial curve, poor fit] |
| CN1CCc2nc3sc(C(=O)Nc4cccc(C#N)c4)c(N)c3cc2C1 | inactive |
| CCCCNC(=O)C1CCN(C(=O)c2ncn3c2COC(c2ccccc2)C3)CC1 (stereo unspecified) | inconclusive: 7.85 µM [activator, partial curve] |
| CCN1CCN(CCNC(=O)c2cccc3c2CCN3C(=O)Nc2ccc(C)cc2)CC1 | active: 1.57 µM |
| CCc1ccc(Nc2nc(-c3ccccc3F)no2)cc1 | inactive |

| SMILES | Potency |
| --- | --- |
| Cc1ccc(NC(=O)C2CCN(C(=O)c3ncn4c3COC(c3ccc(F)cc3)C4)CC2)c(F)c1 (stereo unspecified) | inconclusive: 15.7 µM [activator, partial curve, poor fit] |
| Cn1ccnc1C(O)c1cc2n(n1)CCN(c1ncnc3nc[nH]c13)C2 (stereo unspecified) | inactive |
| COc1ccc(C(=O)NCC2Cc3cc(C)cc(-c4nc5ccccc5s4)c3O2)c(OC)c1OC (stereo unspecified) | inactive |
| O=C1c2cnc(-c3ccc(F)cc3)nc2OCCN1CC1CC1 | inconclusive: 16.1 µM [activator, partial curve] |
| Nc1cccc(-c2ccc(N3CCCCC3)nn2)c1 | active: 1.24 µM |
| Nc1ccc(-c2nc3ccccc3s2)cc1 | inconclusive: 9.89 µM [activator, partial curve] |
| CC(C)n1cc(-c2cc(C(=O)N3CCC(C)(C)C3)c3ccc(F)cc3n2)cn1 | inconclusive: 14 µM [activator, partial curve, poor fit] |
| C#CCn1c(/C=C/c2ccc(Cl)cc2)nc2ccccc21 | inconclusive: 7.85 µM [activator, partial curve] |
| O=C(Nc1ccc2c(c1)OCCO2)C1CN(S(=O)(=O)C2CC2)CC12CCCCC2 (stereo unspecified) | inconclusive: 7 µM [activator, partial curve, poor fit] |
| Cc1ccc(C2Cn3nnc(C(=O)N4CCC(C(=O)NCc5ccncc5)CC4)c3CO2)cc1 (stereo unspecified) | inconclusive: 12.4 µM [activator, partial curve, poor fit] |
| c1ccc(-c2ccnc(NCCc3c[nH]c4ccccc34)n2)nc1 | inactive |
| CC(C)Cc1noc(-c2ccc(N3CCC(O)CC3)nc2)n1 | inconclusive: 8.81 µM [activator, partial curve] |
| Cc1ccc(NC(=O)Nc2ccc(C)n(CC(=O)N3CCC(C)CC3)c2=O)cc1 | inconclusive: 14 µM [activator, partial curve] |
| CCN(CC)C(=O)N1CCOC(c2ccc3cc(OC)ccc3c2)C1 (stereo unspecified) | inconclusive: 14 µM [activator, partial curve] |
| Cc1ccc(C2Cn3nnc(C(=O)N4CCC(C(=O)NCCc5cccs5)CC4)c3CO2)cc1 (stereo unspecified) | inconclusive: 14 µM [activator, partial curve] |
| CCNC(=O)N[C@@H]1C=C[C@@H](c2c(C)nn(-c3ccc(C(F)(F)F)cc3)c2C)C1 | inconclusive: 4.53 µM [activator, full curve, poor fit] |
| Cc1ccc(-c2nc(-c3ccccc3)no2)c(Cl)c1 | active: 3.51 µM |
| Cc1ccc(-c2cc(C(=O)N3CCC(Cc4nncn4CC4CC4)CC3)c3ccccc3n2)cc1C | inconclusive: 1.97 µM [activator, full curve] |
| Cc1cccn2c(=O)c(C(=O)NCCc3ccccc3)cnc12 | inconclusive: 12.4 µM [activator, partial curve] |
| O=C1CC2(CCN(CC3CC3)CC2)Oc2cc(Cl)ccc21 | inactive |
| CC(C)c1cccc(NC(=O)C2CCN(C(=O)c3ncn4c3COC(c3ccccc3)C4)CC2)c1 (stereo unspecified) | inconclusive: 4.95 µM [activator, partial curve] |
| O=C1c2cnc(-c3ccsc3)nc2OCCN1c1ccccc1 | inconclusive: 18 µM [activator, partial curve, poor fit] |
